Paper PMC4710663
Results are given in words; binding and its absence hold for the method and conditions named. In cells and extracts the contact can be indirect. Some results given as binding are weak or reduced against the parent protein; the word gives no strength. Where a sequence is shown, tags or fusion partners need not be part of it. Each block holds one binder with its values, some of them ahead of it.

Legend:
Assay in all cases: pull-down; GST fusion protein on glutathione beads as bait, incubated with lysate of Cos7 or HEK293T cells expressing the ECFP or EYFP fusion protein, 2-4 h at 4 °C; Western blot with EGFP antibody; only the target purified
GST-(P81-401) (human) = GST-(P81-401) (human) (UniProt P16298)
GST-(P1-401) (human) = GST-(P1-401) (human) (UniProt P16298)
GST-(P355-525) (human) = GST-(P355-525) (human) (UniProt P16298)
[1] = biological target: GST-PPP3CB fusion protein (human) (UniProt P16298)

B1: (A1-92)-ECFP (domain or fragment, UniProt Q96SQ7-1 1-92)
chain: MKHIPVLEDGPWKTVCVKELNGLKKLKRKGKEPARRANGYKTFRLDLEAPEPRAVATNGLRDRTHRLQPVPVPVPVPVPVAPAVPPRGGTDT
binding (GST-(P81-401) (human)): binds

Binder: ERTRVHTISAAFEALRKQVPCYSYGQKLSKLAILRIA (domain or fragment, UniProt Q96SQ7-1 239-275) [(A239-275)-ECFP]
binding (GST-(P81-401) (human)): no binding

B3: (A1-55)-ECFP (domain or fragment, UniProt Q96SQ7-1 1-55)
chain: MKHIPVLEDGPWKTVCVKELNGLKKLKRKGKEPARRANGYKTFRLDLEAPEPRAV
binding (GST-(P81-401) (human)): binds

B5: ATOH8-ECFP fusion protein (protein, UniProt Q96SQ7-1 1-321)
chain: MKHIPVLEDGPWKTVCVKELNGLKKLKRKGKEPARRANGYKTFRLDLEAPEPRAVATNGLRDRTHRLQPVPVPVPVPVPVAPAVPPRGGTDTAGERGGSRAPEVSDARKRCFALGAVGPGLPTPPPPPPPAPQSQAPGGPEAQPFREPGLRPRILLCAPPARPAPSAPPAPPAPPESTVRPAPPTRPGESSYSSISHVIYNNHQDSSASPRKRPGEATAASSEIKALQQTRRLLANARERTRVHTISAAFEALRKQVPCYSYGQKLSKLAILRIACNYILSLARLADLDYSADHSNLSFSECVQRCTRTLQAEGRAKKRKE
binding (GST-(P1-401) (human)): binds
binding (GST-(P355-525) (human)): no binding

B6: (A1-190)-ECFP (domain or fragment, UniProt Q96SQ7-1 1-190)
chain: MKHIPVLEDGPWKTVCVKELNGLKKLKRKGKEPARRANGYKTFRLDLEAPEPRAVATNGLRDRTHRLQPVPVPVPVPVPVAPAVPPRGGTDTAGERGGSRAPEVSDARKRCFALGAVGPGLPTPPPPPPPAPQSQAPGGPEAQPFREPGLRPRILLCAPPARPAPSAPPAPPAPPESTVRPAPPTRPGES
binding (GST-(P1-401) (human)): binds
binding (GST-(P81-401) (human)): binds

B9: (A1-230)-ECFP (domain or fragment, UniProt Q96SQ7-1 1-230)
chain: MKHIPVLEDGPWKTVCVKELNGLKKLKRKGKEPARRANGYKTFRLDLEAPEPRAVATNGLRDRTHRLQPVPVPVPVPVPVAPAVPPRGGTDTAGERGGSRAPEVSDARKRCFALGAVGPGLPTPPPPPPPAPQSQAPGGPEAQPFREPGLRPRILLCAPPARPAPSAPPAPPAPPESTVRPAPPTRPGESSYSSISHVIYNNHQDSSASPRKRPGEATAASSEIKALQQT
binding (GST-(P1-401) (human)): binds
binding (GST-(P355-525) (human)): no binding
binding [1]: binds

Results, then the binder that gave them:

binding (GST-(P81-401) (human)): no binding
B2: (A90-190)-ECFP (domain or fragment, UniProt Q96SQ7-1 90-190)
chain: TDTAGERGGSRAPEVSDARKRCFALGAVGPGLPTPPPPPPPAPQSQAPGGPEAQPFREPGLRPRILLCAPPARPAPSAPPAPPAPPESTVRPAPPTRPGES

binding (GST-(P1-401) (human)): binds
binding (GST-(P355-525) (human)): no binding
binding [1]: binds
B4: (A188-321)-ECFP (domain or fragment, UniProt Q96SQ7-1 188-321)
chain: GESSYSSISHVIYNNHQDSSASPRKRPGEATAASSEIKALQQTRRLLANARERTRVHTISAAFEALRKQVPCYSYGQKLSKLAILRIACNYILSLARLADLDYSADHSNLSFSECVQRCTRTLQAEGRAKKRKE

binding (GST-(P1-401) (human)): binds
binding (GST-(P81-401) (human)): binds
B7: (A225-321)-ECFP (domain or fragment, UniProt Q96SQ7-1 225-321)
chain: KALQQTRRLLANARERTRVHTISAAFEALRKQVPCYSYGQKLSKLAILRIACNYILSLARLADLDYSADHSNLSFSECVQRCTRTLQAEGRAKKRKE

binding (GST-(P81-401) (human)): binds
B8: (A225-275)-ECFP (domain or fragment, UniProt Q96SQ7-1 225-275)
chain: KALQQTRRLLANARERTRVHTISAAFEALRKQVPCYSYGQKLSKLAILRIA
